Out of some 4,800 compounds screened, about 410 (8.5%) showed an effect of 50% or more. This is one part of the list.
Each molecule was assayed on Plasmodium falciparum (assay: Confirmatory screen in NF54 pLDH assay, in single point, at 2uM, 72h). Conditions: timepoint 72 hour.
Type: functional, Erythrocyte
For `Clc1ccc(COc2ccc(Cl)cc2CNCCCn2ccnc2)c(Cl)c1`, the “% Inhibition” value was 100%.
`Cc1ccccc1CNC(=O)c1ccccc1NC(=O)C1CC=CCC1C(=O)O` (stereo not drawn) was tested, and the “% Inhibition” value was 7%.
In the case of `COCCN(CC1CN(Cc2ccccn2)CC1c1cccc(F)c1)C(=O)COC` (stereo not drawn), the “% Inhibition” value was -5%.
With `Cn1ccnc1[C@@H]1CCCN1Cc1nccn1Cc1ccccc1` the “% Inhibition” value was 43%.
For `CCNC(=O)C[C@H]1CCCCN1C(=O)C1CCN(Cc2csc(C)n2)CC1`, the “% Inhibition” value was 14%.
For `COc1ccc(CCNC(=O)c2c(C)noc2-c2ccncc2)cc1OC`, the “% Inhibition” value was 9%.
For `CCC(C)(C)N(C)C(=O)c1ccccc1Cl`, the “% Inhibition” value was -1%.
In the case of `O=C1CCCC1C(c1ccccc1)N(C1=NS(=O)(=O)c2ccccc21)c1ccccc1` (stereo not drawn), the “% Inhibition” value was -19%.
In the case of `Cc1cc2occ(CC(=O)N[C@@H](Cc3c[nH]c4cc(F)ccc34)C(=O)O)c2cc1C`, the “% Inhibition” value was 7%.
`c1csc(CNC2CCCCCCC2)c1` was tested, and the “% Inhibition” value was -2%.
In the case of `CC1(C)Oc2ccc(NC(=O)c3ccco3)cc2NC1=O`, the “% Inhibition” value was 12%.
For `CCN1CC[C@H](NCc2ccc(OCCN3CCOCC3)c(Cl)c2)C1=O`, the “% Inhibition” value was 6%.
With `CCN(CC)C(=O)N1CCC[C@@H]1CCc1ncc(C)n1C(C)C` the “% Inhibition” value was 12%.
In the case of `COc1ccc2cc3n(c2c1)C[C@@](C)(C(=O)NC1CCCC1)N(Cc1ccc(F)cc1)C3=O`, the “% Inhibition” value was 13%.
In the case of `C[C@H]1CNCCN1C(=O)c1coc2ccccc12`, the “% Inhibition” value was 8%.
For `c1ccc(-c2nnc3nc(N4CCOCC4)nc(N4CCOCC4)n23)cc1`, the “% Inhibition” value was 6%.
With `N#Cc1cc(O)c(-c2c(O)n[nH]c2-c2ccccc2)cc1C#N` the “% Inhibition” value was 10%.
`COc1ccccc1N(Cc1ccccc1)C1=NC(=[N+](Cc2ccccc2)c2ccccc2OC)c2ccccc21` was tested, and the “% Inhibition” value was 67%.
For `Cc1cc(C)c(S(=O)(=O)Cc2ccccc2)c(O)n1`, the “% Inhibition” value was 12%.
For `O=C(Nc1nn(Cc2ccccc2)cc1Cl)c1cc(-c2ccc(OC(F)F)cc2)[nH]n1`, the “% Inhibition” value was -12%.
`COc1ccccc1NC(=O)c1cnn2c3c(cnc12)CCCCC3` was tested, and the “% Inhibition” value was 3%.
`O=C(Cc1nnc2ccc(C(=O)Nc3ccccc3)cn12)Nc1ccc(F)cc1` was tested, and the “% Inhibition” value was 8%.
`O=C(NCc1ccccn1)[C@H]1CN(S(=O)(=O)c2cccnc2)CC12CCCCC2` was tested, and the “% Inhibition” value was 15%.
In the case of `COC(=O)[C@H](NC(=O)CN1CCOc2ccc(Cl)cc21)c1ccc(O)cc1`, the “% Inhibition” value was 7%.
With `Cc1cc(C)cc(CON=C(N)CCO)c1` the “% Inhibition” value was -17%.
With `CCN1C(=O)C(=O)N(CN2CCc3ccccc3C2)C1=O` the “% Inhibition” value was 7%.
For `Cc1cc(CN2C(=O)N[C@@]3(CCCCc4ccccc43)C2=O)no1`, the “% Inhibition” value was 6%.
For `CN1CCN(c2c(F)cc3c(=O)c(C(=O)O)cn(-c4ccc(OC5CC6CCC5(C)C6(C)C)c(F)c4)c3c2F)CC1` (stereo not drawn), the “% Inhibition” value was -4%.
`O=C(c1ccc(O)cc1)C1CCN(C[C@H](O)C(F)(F)F)CC1` was tested, and the “% Inhibition” value was 9%.
In the case of `Cc1nn(C)c(Cl)c1CNCc1ccc(N2CCCCC2)nc1`, the “% Inhibition” value was -13%.
With `COCCCNC(=O)C(=O)Nc1ccnn1C1CCCCC1` the “% Inhibition” value was 7%.
With `CN=C(NCC(=O)N(C)CC(F)(F)F)NCc1ccc(C)cc1` the “% Inhibition” value was 11%.
`Cc1cc(N)cc(Br)c1N` was tested, and the “% Inhibition” value was -12%.
For `COc1ccc(C(NC(=O)NCC2CCCO2)C(Cl)(Cl)Cl)cc1F` (stereo not drawn), the “% Inhibition” value was -1%.
In the case of `COc1cccc(CNCCN2CCOCC2)c1OCc1ccc(Cl)cc1Cl`, the “% Inhibition” value was 11%.
`CC(C)CC1NC2(C(=O)N(Cc3ccccc3F)c3ccccc32)C2C(=O)N(c3cccc(Cl)c3)C(=O)C12` (stereo not drawn) was tested, and the “% Inhibition” value was -2%.
`NC(=O)c1c(Cl)cccc1NCc1noc(Cc2ccccc2)n1` was tested, and the “% Inhibition” value was -11%.
With `O=C(CCOCC(F)(F)F)Nc1ccc2c(c1)C(=O)NC2` the “% Inhibition” value was -5%.
`C[C@H](Nc1cccc2c1CCO2)c1cccnc1` was tested, and the “% Inhibition” value was 19%.
For `Cc1nn(C(C)(C)C)c2nc(C3CC3)cc(C(=O)N(C)c3ccccc3)c12`, the “% Inhibition” value was 87%.
For `COc1cccc(C(=O)N2CCN(c3cc(N4CCOCC4)nc(C)n3)CC2)c1`, the “% Inhibition” value was 4%.
With `Cn1cc(CNC(=O)NCC2(Cc3ccccc3)CCC2)cn1` the “% Inhibition” value was -3%.
`N[C@H]1COc2ccc(Br)cc2C1=O` was tested, and the “% Inhibition” value was -9%.
With `COc1ccc(-c2nccn3cc(C(=O)NCCc4ccncc4)nc23)cc1` the “% Inhibition” value was 5%.
`CC(C)N(C)CCOC(=O)c1ccccc1Cl` was tested, and the “% Inhibition” value was 11%.
With `CC1CCC2C(CCC(C)N2C(=O)c2cc3nc4c(c(C(F)(F)F)n3n2)CCc2ccccc2-4)C1` (stereo not drawn) the “% Inhibition” value was 1%.
For `CS(=O)(=O)Nc1ccc(OC(=O)C2C3CCCCC32)cc1` (stereo not drawn), the “% Inhibition” value was 11%.
For `CC1(C)C(NCC(O)COc2ccc(F)c(F)c2)[C@@H]2CCC[C@@H]21` (stereo partly drawn), the “% Inhibition” value was 75%.
`O=C(CCn1c(=O)[nH]c2ccsc2c1=O)NCc1ccccc1` was tested, and the “% Inhibition” value was 18%.
`CC(C)C[C@]1(C)NC(=O)N(Cc2noc(-c3cccs3)n2)C1=O` was tested, and the “% Inhibition” value was -4%.
In the case of `O=C(c1cn(CC2(O)CCN(Cc3ccccc3)CC2)nn1)N1CCCc2ccccc21`, the “% Inhibition” value was 14%.
For `O=C(NC1CC1)c1nc(C(=O)N2CCN(c3ccccn3)CC2)cs1`, the “% Inhibition” value was 0%.
`O=c1c2ccccc2nc2cc(-c3ccc(O)cc3)c(-c3ccccc3)nn12` was tested, and the “% Inhibition” value was 28%.
`O=C(CNc1ccc2ccccc2c1)Nc1ccc2c(c1)OCCCO2` was tested, and the “% Inhibition” value was 9%.
With `CCCCS(=O)(=O)N1CC[C@H](CC(=O)NCc2ccccc2)C1` the “% Inhibition” value was -15%.
In the case of `Cc1nc2c(Oc3ccccc3)cccc2c2c1CCN2c1ccc(OC(F)(F)F)cc1`, the “% Inhibition” value was -20%.
For `O=C(Nc1cccc2ccccc12)c1nn[nH]c1NS(=O)(=O)c1ccccc1`, the “% Inhibition” value was -5%.
With `O=C1CN(C(=O)c2ccc3noc(-c4ccccc4)c3c2)CCN1` the “% Inhibition” value was 1%.
`O=C1CNC(=O)N1Cc1ncoc1-c1ccccc1` was tested, and the “% Inhibition” value was -21%.
For `O=C1O[C@H](C(=O)Nc2ccc(S(=O)(=O)N3CCCC3)cc2)Cc2ccccc21`, the “% Inhibition” value was -10%.
In the case of `N#CCc1ncc(CCN2C(=O)c3ccccc3C2=O)s1`, the “% Inhibition” value was 7%.
With `C[C@H]1CN(Cc2cc3c(cc2Br)OCO3)CCN1S(C)(=O)=O` the “% Inhibition” value was -6%.
`COc1nc2ncnc(OC)c2nc1C#N` was tested, and the “% Inhibition” value was 12%.
`c1cc(-c2nnn(CN3CCCCC3)n2)ccn1` was tested, and the “% Inhibition” value was -5%.
`CCS(=O)(=O)N1CCC(N2C(=O)[C@@H]3CC[C@@H](c4ccccc4)N3C2=O)CC1` was tested, and the “% Inhibition” value was -9%.
`Cc1nn(CCc2nnc(-c3ccc4c(c3)OCO4)o2)c(C)c1Cl` was tested, and the “% Inhibition” value was 11%.
`Cc1cc(C)n(-c2nnc(-c3ccccc3)c(-c3ccccc3)n2)n1` was tested, and the “% Inhibition” value was 10%.
`COc1c2c(cc3c1[C@@H](C#CCOc1ccccc1)[N+](C)(C)CC3)OCO2` was tested, and the “% Inhibition” value was 68%.
`CC(C)(C)c1cnc(CN2CCCN(C(N)=O)CC2)s1` was tested, and the “% Inhibition” value was 0%.
In the case of `Cc1nnc2ccc(S(=O)(=O)N(Cc3ccccc3F)c3cc(F)cc(F)c3)cn12`, the “% Inhibition” value was 4%.
In the case of `c1ccc(-c2cc3c(N4CCC4)ncnc3s2)cc1`, the “% Inhibition” value was 6%.
`COc1cccc(-c2nsc(C(=O)NCc3cccnc3)c2N)c1` was tested, and the “% Inhibition” value was 8%.
For `CC(C)[C@@H](C(=O)Nc1ccc2c(c1)OCO2)N(Cc1cccnc1)C(=O)Cn1nnc2ccccc21`, the “% Inhibition” value was -2%.
For `COc1ccc(C(=O)n2[nH]c(=O)c(CCO)c2C)cc1`, the “% Inhibition” value was 5%.
For `Nc1noc2cc(C(F)(F)F)cnc12`, the “% Inhibition” value was 9%.
`c1ccc(-c2cccnc2NCc2cscn2)cc1` was tested, and the “% Inhibition” value was -3%.
In the case of `COc1ccc(NC(=O)Cc2c(C)nn(-c3nc(C)cs3)c2O)c(OC)c1`, the “% Inhibition” value was 5%.
For `O=C(O)Cc1ccc(OCc2nnc(-c3ccccc3)s2)cc1`, the “% Inhibition” value was 5%.
`CN(c1ccc(Cl)cn1)S(=O)(=O)c1ccc2ncccc2c1` was tested, and the “% Inhibition” value was -14%.
`O=c1cc(-c2ccccc2)n(S(=O)(=O)c2ccccc2)o1` was tested, and the “% Inhibition” value was -7%.
In the case of `Cc1cnn(-c2ccncc2NS(C)(=O)=O)c1`, the “% Inhibition” value was -18%.
`CN(C(=O)C1C(C(=O)O)C1(C)C)c1ccccc1OC(F)F` (stereo not drawn) was tested, and the “% Inhibition” value was 2%.
In the case of `Cc1cnc(-n2cnnc2)c(-c2ccc(S(C)(=O)=O)cc2)c1`, the “% Inhibition” value was -1%.
In the case of `CC(C)n1nccc1N1C(=O)N[C@@H](CC(F)(F)F)C1=O`, the “% Inhibition” value was 0%.
For `O=C(CN1C(=O)COc2ccccc21)N1CCC[C@H](c2nc3ccccc3s2)C1`, the “% Inhibition” value was -13%.
With `Cc1c(N2CCN(C(=O)c3ccc(F)cc3)CC2)c(=O)n(C)c(=O)n1C` the “% Inhibition” value was 7%.
`CCOC(=O)CNc1ccc(F)c(Cl)c1` was tested, and the “% Inhibition” value was -3%.
In the case of `Cc1ccc(C(F)(F)C(=O)NCCC(=O)NS(C)(=O)=O)cc1`, the “% Inhibition” value was 40%.
For `Cc1c(C(=O)NC[C@](C)(O)c2ccc(F)cc2F)cnn1C`, the “% Inhibition” value was 10%.
For `NC(=O)C1CCN(C(=O)Nc2nc(C(F)(F)F)cs2)CC1`, the “% Inhibition” value was 7%.
`COC(=O)Nc1nc(-c2ccccc2)c(-c2nc3ccccc3c(=O)n2-c2ccc(OC)cc2)s1` was tested, and the “% Inhibition” value was 23%.
With `FC(F)(F)C(c1nc(Nc2nc(N3CCOCC3)nc(N3CCOCC3)n2)nc(C(C(F)(F)F)(C(F)(F)F)C(F)(F)F)n1)(C(F)(F)F)C(F)(F)F` the “% Inhibition” value was 12%.
In the case of `O=C(CS(=O)(=O)Cc1cc(Cl)c2c(c1)OCCCO2)NC1CCCCCC1`, the “% Inhibition” value was -14%.
For `Cc1ccc(S(=O)(=O)NC(C)C)c(C)c1`, the “% Inhibition” value was 10%.
In the case of `CCCCN(CC)c1ncc(C(=O)Nc2ccc(OCC)cc2)c(N)n1`, the “% Inhibition” value was 15%.
In the case of `Clc1cccc(COc2ccccc2CNc2nc[nH]n2)c1`, the “% Inhibition” value was -7%.
With `Cc1ccc(CC(=O)N2CCC(NC(=O)OC(C)(C)C)CC2C)o1` (stereo not drawn) the “% Inhibition” value was 5%.
In the case of `CC[C@H](C)Oc1cccc(-c2nc(=O)c(CCC(=O)N3CCOCC3)n[nH]2)c1`, the “% Inhibition” value was 10%.
For `C[C@H](NC(=O)c1ccco1)c1nc(-c2ccc(=O)n(C)c2)no1`, the “% Inhibition” value was 12%.
For `CCC1CN(CCCN2C(=O)CNC2=O)CCC1c1ccccc1` (stereo not drawn), the “% Inhibition” value was 4%.
`CCc1cc(N2C[C@@H]3NC(=O)CN(C)Cc4ccc(OC)c(c4)Oc4cccc(c4)CO[C@H]3C2)nc(N(C)C)n1` was tested, and the “% Inhibition” value was 38%.
With `Cc1cccc2c1N(C(=O)[C@H]1CCS(=O)(=O)C1)CC2` the “% Inhibition” value was 13%.
With `Nc1n[nH]c(N)c1Cc1cccc(Br)c1` the “% Inhibition” value was 2%.

From ChEMBL document CHEMBL4888484, “Replenishing the malaria drug discovery pipeline: Screening and hit evaluation of the MMV Hit Generation Library 1 (HGL1) against asexual blood stage Plasmodium falciparum ,using a nano luciferase reporter read-out” (2022)
